PubChem BioAssay AID1030 (National Center for Advancing Translational Sciences (NCATS), 2008)
The whole screen tested about 220,000 compounds, of which about 16,000 (7.3%) were called active. This list was built around the results that the source calls inconclusive (neither active nor inactive); the mix of calls is not that of the screen. Calls follow the shape of the dose curve; as a rule, active = well fitted inhibition curve with a large enough effect (not every such curve was filed as active); inconclusive = small, poorly fitted or top-dose-only effect, or another doubt; inactive = no such curve, though single readings can be large or run the other way. No potency is given beside an inconclusive call; the fits are too rough.

target: Aldehyde dehydrogenase 1A1 (Homo sapiens) (UniProt P00352); assay: qHTS Assay for Inhibitors of Aldehyde Dehydrogenase 1 (ALDH1A1); conditions: Purified ALDH1A1, NADH fluorescence, propionaldehyde substrate; series mostly up to 75.3 µM
Potency is read from the fitted curve at half-maximal effect; tags tell the direction and shape of the fitted curve.

Chain of UniProt P00352 (P00352 whole entry, looked up): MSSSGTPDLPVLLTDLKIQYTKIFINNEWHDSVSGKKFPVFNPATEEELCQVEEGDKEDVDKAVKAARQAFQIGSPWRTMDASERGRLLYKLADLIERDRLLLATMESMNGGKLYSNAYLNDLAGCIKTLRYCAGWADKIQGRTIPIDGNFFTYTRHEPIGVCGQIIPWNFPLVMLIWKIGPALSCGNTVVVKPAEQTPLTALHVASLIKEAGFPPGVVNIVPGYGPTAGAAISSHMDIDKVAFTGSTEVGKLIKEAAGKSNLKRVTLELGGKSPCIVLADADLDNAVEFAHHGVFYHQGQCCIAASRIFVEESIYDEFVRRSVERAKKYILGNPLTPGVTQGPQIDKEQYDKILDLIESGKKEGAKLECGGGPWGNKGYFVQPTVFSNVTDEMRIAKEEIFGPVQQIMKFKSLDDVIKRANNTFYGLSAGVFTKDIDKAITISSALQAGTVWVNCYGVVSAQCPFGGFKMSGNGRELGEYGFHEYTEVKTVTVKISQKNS

Row | Structure (SMILES) | Potency
1 | Cc1cc(=O)[nH]c2c(C)c(N)ccc12 | inconclusive [inhibitor, partial curve]
2 | COC(=O)CN1C(=O)N/C(=C/c2cc3c(cc2OC)OCO3)C1=O | active: 7.94 µM
3 | COc1ccc2oc(=O)c(C(=O)Nc3ccccc3-c3ccccc3)cc2c1 | inconclusive [inhibitor, partial curve]
4 | CSc1ccc(/C=N\NC(=O)CNc2ccc(C)cc2)cc1 | inconclusive [inhibitor, partial curve]
5 | CCC(=O)O | inactive
6 | CCOC(=O)CSc1nnc(-c2ccccc2NC(=O)c2ccccc2)o1 | inconclusive [inhibitor, single point]
7 | O=C(O)CCN1C(=O)c2ccc(NC(=O)Cc3ccc(Cl)cc3)cc2C1=O | inconclusive [inhibitor, partial curve]
8 | O=C(C1=C(O)C(=O)N(c2ncccn2)C1c1ccc(Cl)c(Cl)c1)c1ccco1 (centres undefined) | active: 7.94 µM
9 | c1ccc(COc2nsnc2N2CCOCC2)cc1 | inconclusive [inhibitor, single point]
10 | CC1(C)Cc2c(c(N3CCCC3)nc3sc4c(N5CCN(CCO)CC5)ncnc4c23)CO1 | inconclusive [inhibitor, single point]
11 | COCCNC(=S)NCCc1ccc(Cl)cc1Cl | inconclusive [inhibitor, single point]
12 | CC(C)CCNC(=O)C(c1ccco1)N(Cc1ccc(F)cc1)C(=O)c1snc(C(N)=O)c1N (centres undefined) | inconclusive [inhibitor, partial curve]
13 | COC(=O)c1sc(S(=O)(=O)N2CCC(C)CC2)c(C(=O)OC)c1C | inconclusive [inhibitor, partial curve, poor fit]
14 | CCOC(=O)C1CN(S(=O)(=O)c2ccc(Cl)cc2)c2cc(S(=O)(=O)CC)ccc2O1 (centres undefined) | inconclusive [inhibitor, single point]
15 | COc1ccc2nc3c(cc2c1)c(NC(=O)c1cccs1)nn3CC(C)C | inconclusive [inhibitor, partial curve]
16 | Cc1cc2cc(CNC(=O)Cc3ccc([N+](=O)[O-])cc3)ccc2[nH]1 | inconclusive [inhibitor, single point]
17 | O=c1cc(CN2CCN(S(=O)(=O)c3ccc4c(c3)OCCO4)CC2)c2ccc(O)cc2o1 | inconclusive [inhibitor, partial curve]
18 | CCOc1cccc(C2C(C(=O)c3ccco3)=C(O)C(=O)N2Cc2ccncc2)c1 (centres undefined) | inactive
19 | COc1cccc(NS(=O)(=O)c2ccc3[nH]cc(C(=O)NCCCOC(C)C)c(=O)c3c2)c1 | active: 11.2 µM
20 | c1ccc(N/N=C(\Cc2nc3ccccc3[nH]2)c2ccccc2)cc1 | active: 28.2 µM
21 | O=C(COC(=O)c1ccc(S(=O)(=O)N2CCCC2)cc1)Nc1cccnc1Cl | inconclusive [inhibitor, partial curve]
22 | Cc1ccc(C(=O)Nc2nc(-c3cccnc3)cs2)o1 | inconclusive [inhibitor, single point]

Row | Structure (SMILES) | Potency
23 | COc1ccc(S(=O)(=O)N2CCN(C3CCN(Cc4ccccc4)CC3)CC2)cc1 | inconclusive [inhibitor, single point]
24 | COc1ccc(/C=C(\C#N)C(=O)OCC(=O)Nc2ccc(-c3nc4ccc(C)cc4s3)cc2)cc1 | inconclusive [inhibitor, single point]
25 | CCN(CC)S(=O)(=O)c1ccc(Cl)c(C(=O)Nc2cc(C)nn2-c2ccccc2)c1 | inconclusive [inhibitor, full curve, poor fit]
26 | COc1ccc(OC)c(/C=N/NC(=O)CN2CCSCC2)c1 | inconclusive [inhibitor, partial curve]
27 | CCCCN(C(=O)c1ccc(NC(=O)C(C)C)cc1)c1ccccc1 | inconclusive [inhibitor, single point]
28 | N#CC1=C(N)SC2(CCCCC2)SC1c1ccccc1 (centres undefined) | active: 25.1 µM
29 | COc1cc([N+](=O)[O-])cc(/C=N/NC(=O)C(C)Nc2cccc3ccccc23)c1O (centres undefined) | inactive
30 | O=C(Nc1cccc(C2OCCCO2)c1)c1cccs1 | inactive
31 | Nn1cnnc1SCC(=O)Nc1ccc2c(c1)OCO2 | inactive
32 | c1ccc2c(c1)Cc1cc3cc4c(cc3nc1-2)OCO4 | inconclusive [inhibitor, partial curve]
33 | Cc1ccc(S(=O)(=O)c2ccccc2)cc1S | inconclusive [inhibitor, single point]
34 | Cc1ccc(C)c(/C(O)=C2\C(=O)C(=O)N(CCCN3CCOCC3)C2c2cccnc2)c1 (centres undefined) | inconclusive [inhibitor, single point]
35 | Cc1c(C(=O)Nc2cccc3cccnc23)oc2ccccc12 | inactive
36 | Cc1ccc(-c2c3c([nH]c(=S)c2C#N)CCCC3)o1 | active: 7.94 µM
37 | CSCCC(NC=C1C(=O)OC(C)(C)OC1=O)C(=O)O (centres undefined) | inconclusive [inhibitor, partial curve]
38 | O=C(CSc1ccc2ccccc2n1)c1ccc2c(c1)OCO2 | inconclusive [inhibitor, partial curve]
39 | Cc1ccc(-c2ccc(/C=N/N3C(=O)C4C5C=CC(C6CC56)C4C3=O)o2)c([N+](=O)[O-])c1 (centres undefined) | inconclusive [inhibitor, partial curve]
40 | CCOC(=O)Cc1csc(NC(=O)C2CCCCC2C(=O)O)n1 (centres undefined) | inconclusive [inhibitor, single point]
41 | Cc1c(Cl)cccc1NC(=O)CSc1ccc(-c2cccnc2)nn1 | inactive
42 | Cc1csc(NC(=O)CSCC(=O)O)c1-c1nc2ccccc2s1 | inconclusive [inhibitor, single point]
43 | Cc1cc2nnc(SCC(=O)N3C(C)CCCC3C)n2c(N)n1 (centres undefined) | inconclusive [inhibitor, single point]
44 | Cc1cc2oc3c(c(=O)c2cc1C)C(c1ccc(F)cc1)N(CCCN1CCOCC1)C3=O (centres undefined) | active: 7.08 µM
